Laboratory results: PubChem BioAssay AID1745845 (National Center for Advancing Translational Sciences (NCATS), 2022)
“And” between values parts separate entries of the source, which are not always exact repeats. Equal values may be shown once. About 2,600 (0.72%) of roughly 360,000 compounds were called active. Inconclusive results, whose numbers are uncertain, are shown with a selection of clear calls. Calls follow the shape of the dose curve; as a rule, active = well fitted inhibition curve with a large enough effect; inconclusive = small, poorly fitted or top-dose-only effect; inactive = no such curve, though single readings can be large or run the other way. Potencies of inconclusive entries are doubtful fits and often do not repeat. The source holds several records for some structures; these can differ, active in one and inactive in another.

Experiment: Primary qHTS for Inhibitors of ATXN expression; also: nearly all actives have a fitted effect of over 55% in size
Conditions: HEK-293 ATXN2-luciferase reporter, luminescence, 24 h; activity change, negative = inhibition: at 57 µM (top of the series)
Method in brief: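 ATXN2-luciferase reporter cells (luciferase flanked by upstream and downstream ATXN2 gene portions) were treated 24 h at 37 °C with compounds at up to 57 uM. SteadyGlo luminescence gave expression; GF-AFC fluorescence gave viability.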
% is scaled to controls: 0 for no effect and ±100 for the full control effect; potency is read from the fitted curve at half-maximal effect; tags tell the direction and shape of the fitted curve.

| Compound | Potency | activity change, negative = inhibition |
| --- | --- | --- |
| COc1c(C)cc(Br)cc1C(=O)Nc1cccc(NC(=O)c2ccco2)c1 | inconclusive: 22.4 µM [inhibitor, single point] |  |
| O=S(=O)(c1cccc2cnccc12)N1CCCNCC1 | inconclusive: 27.3 µM [inhibitor, single point] and active: 25.1 µM |  |
| O=C(C1CCN(S(=O)(=O)c2cc(Cl)ccc2Cl)CC1)N1CCOCC1 |  | inactive: 15.3% |
| CCOC(=O)C1CCCN(C(=O)c2cc3c(Cl)nc4ccccc4c3s2)C1 (stereo not given) | active: 14.1 µM |  |
| CC(Oc1ccc(Br)cc1)C(=O)Nc1nc(-c2ccccn2)cs1 (stereo not given) | inconclusive: 14.1 µM [inhibitor, partial curve, poor fit] |  |
| Cc1c(-c2ccc(Cl)cc2)c(=O)oc2c(CN3CCN(C)CC3)c(O)ccc12 |  | inactive: -6.25% |
| CN(C)CCCN(C(=O)COc1ccc(Cl)cc1)c1nc2cc3c(cc2s1)OCO3 | inconclusive: 39.8 µM [inhibitor, single point] |  |
| CC(C)(C)CC(C)(C)NC(=S)NC1CCN(Cc2ccccc2)CC1 | inconclusive: 31.6 µM [inhibitor, single point] |  |
| O=C(NC(c1cccnc1)c1ccc2c(c1)OCO2)C1CCN(CCOc2ccc(Cl)cc2Cl)CC1 (stereo not given) | inconclusive: 39.8 µM [inhibitor, single point] |  |
| COC(=O)C1(CC2CC(c3ccccc3)=NO2)CCN(C(=O)OC(C)(C)C)CC1 (stereo not given) | inconclusive: 25.1 µM [inhibitor, single point] |  |
| CC(=O)NCCNc1nc(NCc2cccs2)nc2ccsc12 |  | inactive: 13.8% |
| CN(C)c1ccc(C(=O)N/N=C/c2cc(Br)cc(Br)c2O)cc1 | active: 3.55 µM |  |
| CCOc1ccc(S(=O)(=O)N2CCCC(C(=O)N3CCN(c4ccccc4)CC3)C2)cc1 (stereo not given) | inconclusive: 15.8 µM [inhibitor, partial curve, poor fit] |  |
| COc1cc(OC)cc(C(=O)N2CCC(N3CCN(c4ccccc4)CC3)CC2)c1 |  | inactive: -7.54% |
| CN(C)c1ccc(NC(=O)c2cccc(C(=O)Nc3ccc(N(C)C)cc3)n2)cc1 | inconclusive: 26.7 µM [inhibitor, single point] |  |
| O=C(/C=C/c1ccccc1)OCc1cnc(Cl)s1 | inconclusive: 0.532 µM [inhibitor, full curve, poor fit] |  |
| O=C(NCCc1cn2ccccc2n1)c1cc(COc2ccc3ncccc3c2)on1 | inconclusive: 18.9 µM [inhibitor, partial curve, poor fit] |  |
| CC(=O)N1CCc2c(sc(NC(=O)C3CC3)c2-c2nc3ccccc3s2)C1 | active: 31.6 µM |  |
| COc1ccc(C2=NN(C(=O)COc3ncnc4ccccc34)C(c3ccco3)C2)cc1 (stereo not given) |  | inactive: 6.83% |
| C[C@H](CO)N1C[C@H](C)[C@@H](CN(C)C(=O)c2ccc3c(c2)OCO3)Oc2cc(/C=C/c3ccccc3)ccc2S1(=O)=O | inconclusive: 17.8 µM [inhibitor, partial curve] |  |
| C/C(=N\NC(=O)c1cc(-c2cccnc2)nc2ccccc12)c1ccccc1O | inconclusive: 2.82 µM [inhibitor, full curve] |  |
| C[C@@H]1CN([C@@H](C)CO)S(=O)(=O)c2ccc(C#Cc3cccc(F)c3)cc2O[C@H]1CN(C)S(=O)(=O)c1cn(C)cn1 | inconclusive: 39.8 µM [inhibitor, single point] |  |

| Compound | Potency | activity change, negative = inhibition |
| --- | --- | --- |
| O=C(O)c1cc(-c2ccc3ccccc3n2)nc2ccccc12 | inconclusive: 12.6 µM [inhibitor, partial curve, poor fit] |  |
| CCOC(=O)N1CCN(C(=O)C(CC(C)C)NS(=O)(=O)c2ccc3c(c2)oc(=O)n3C)CC1 (stereo not given) |  | inactive: -6.8% |
| CCOc1cc2c(c3c1C(c1ccccc1)N(S(=O)(=O)c1ccc(C)cc1)C3)C(=O)C=CC2=O (stereo not given) | inconclusive: 2 µM [inhibitor, partial curve, poor fit] |  |
| CCc1nn(CCCN2CCN(c3cccc(Cl)c3)CC2)c(=O)n1CCOc1ccccc1 | inconclusive: 39.8 µM [inhibitor, partial curve, poor fit] and inconclusive: 17.8 µM [inhibitor, partial curve, poor fit] and inconclusive: 7.08 µM [inhibitor, partial curve, poor fit] |  |
| O=C(Nc1ccncc1)Nc1cc(Cl)ccc1Cl |  | inactive: -26.2% |
| COc1ccc(-c2noc(C(=O)NCc3ccc(F)cc3)n2)cc1OC | inconclusive: 8.91 µM [inhibitor, partial curve, poor fit] |  |
| O=C(Nc1ccc(F)c(Cl)c1)C1Cc2c(-c3ccc4c(c3)OCO4)ccnc2O1 (stereo not given) | inconclusive: 25.1 µM [inhibitor, partial curve] |  |
| COc1cccc(NC(=O)c2ccccc2-c2nc(-c3ccc(F)cc3)no2)c1 | inconclusive: 39.8 µM [inhibitor, partial curve, poor fit] |  |
| Cc1ccccc1Cn1c(=O)n(CC2CCC(C(=O)N3CCC(C)CC3)CC2)c(=O)c2sccc21 (stereo not given) | inconclusive: 28.2 µM [inhibitor, partial curve, poor fit] |  |
| O=C1c2ccccc2NC(c2ccc(O)cc2)N1/N=C/c1ccc(O)cc1 (stereo not given) |  | inactive: 31.6% |
| CCC(CC)C(=O)Nc1c2c(nn1-c1ccc(OC)cc1)CS(=O)(=O)C2 |  | inactive: -0.586% |
| CCc1[nH]nc(C(=O)N2CCCC(N3CCN(c4ccccc4C)CC3)C2)c1C (stereo not given) |  | inactive: -4.57% |
| COC(=O)CC/C(=N/Nc1ccc(Cl)c(Cl)c1)C(=O)OC |  | inactive: 9.64% |
| Cc1ccccc1S(=O)(=O)NC(=O)C1(C)CCN1C(=O)Cc1cc(F)ccc1F (stereo not given) |  | inactive: 10.9% |
| Cc1cc(C)c(NC(=O)C2CCN(C(=O)N3CC(C)Oc4ccc(Cl)cc43)CC2)c(C)c1 (stereo not given) | inconclusive: 39.8 µM [inhibitor, single point] |  |
| Cc1cc(C)nc(Nc2nc3ccccc3o2)n1 |  | inactive: 3.96% |
| Cc1cc(OCC(=O)NNC(=S)NCC2CCCO2)cc(C)c1Cl (stereo not given) |  | inactive: 5.92% |
| COc1cc(/C=C2\SC(=O)N(c3ccccc3Cl)C2=O)cc([N+](=O)[O-])c1O |  | inactive: -0.256% |
| COc1cccc(-n2cc(CN(C)Cc3nc(Cc4cccc(F)c4)no3)cn2)c1 |  | inactive: -13.1% |
| COc1ccc(C)cc1NC(=O)COC(=O)c1c(C)nn(-c2ccccc2)c1C | active: 22.4 µM |  |
| Cc1sc2ncnc(SCC(=O)Nc3ccc(S(=O)(=O)N4CCOCC4)cc3)c2c1C | inconclusive: 12.6 µM [inhibitor, partial curve, poor fit] |  |
| CC(C)c1cnn2c(NCc3ccccc3)cc(NCCCCCCN)nc12 | inconclusive: 17.2 µM [inhibitor, partial curve] |  |

| Compound | Potency | activity change, negative = inhibition |
| --- | --- | --- |
| Cc1ccc(CCC(=O)Nc2ncc(Cc3cccc(Cl)c3Cl)s2)o1 |  | inactive: 0.419% |
| COc1cccc(/C=N/NC(=O)CNC(=O)c2ccc3c(c2)OCCO3)c1O | inconclusive: 15.8 µM [inhibitor, partial curve, poor fit] |  |
| C=CCSc1nnc(-c2cc3c(C(F)(F)F)nn(C)c3s2)n1C |  | inactive: 1.54% |
| CC(C)CC(=O)NC(=S)Nc1ccc(N2CCN(C(=O)c3cccs3)CC2)cc1 | inconclusive: 10.6 µM [inhibitor, partial curve, poor fit] |  |
| NC(N)=Nc1nc(-c2ccccc2)c2cc(F)ccc2n1 | inconclusive: 2.24 µM [inhibitor, partial curve, poor fit] |  |
| CCN(CCCNC(=O)CSc1cc(=O)n(C)c2cc(Cl)ccc12)c1ccccc1 |  | inactive: 0.468% |
| Cc1c(C)c2cccnc2c2ncccc12 | inconclusive: 0.794 µM [inhibitor, full curve, poor fit] |  |
| O=C(NCCN1C(=O)S/C(=C\c2ccc(Cl)c([N+](=O)[O-])c2)C1=O)C1=COCCO1 | inconclusive: 0.891 µM [inhibitor, single point] |  |
| CN1CCN(c2ccccc2NC(=O)c2ccc(N3CCCCC3)c([N+](=O)[O-])c2)CC1 |  | inactive: 0% |
| CC(C)(O)CC(=O)NCCn1ccc2ncnc(Nc3ccc(Oc4cccc(C(F)(F)F)c4)c(Cl)c3)c21 | inconclusive: 48.5 µM [inhibitor, partial curve, poor fit] |  |
| Cc1cc(O)c(C(C)C)cc1N=Cc1ccccc1[N+](=O)[O-] | active: 17.8 µM |  |
| COc1cccc(-c2nnc(NC(=O)c3ccc(S(=O)(=O)N4CC(C)OC(C)C4)cc3)o2)c1 (stereo not given) | inconclusive: 14.1 µM [inhibitor, partial curve] |  |
| CCCCCCN1C[C@@H](n2cc(-c3ccc(F)cc3)nn2)[C@H](O)C[C@@H]1c1ccc(Cl)cc1 | inconclusive: 35.5 µM [inhibitor, single point] |  |
| COCCCNC(=O)CSc1nc(-c2ccc(OC)cc2)[nH]c1-c1ccc(OC)cc1 |  | inactive: -1.41% |
| CCN1CCN(c2cc(C)c3cc(NC(=O)c4cc(Br)ccc4Cl)ccc3n2)CC1 | inconclusive: 39.8 µM [inhibitor, single point] |  |
| CC1CC(C)CN(C(=O)CCCn2c(=S)[nH]c3ccccc3c2=O)C1 (stereo not given) |  | inactive: -12% |
| CC(C)CC(N)c1csc(NC(=O)Nc2ccccc2Cc2ccccc2)n1 (stereo not given) | inconclusive: 35.5 µM [inhibitor, single point] |  |
| C=CCc1ccc(OCCCCN2CC(C)CC(C)C2)c(OC)c1 (stereo not given) |  | inactive: -7.83% |
| Cc1cc(Nc2ccccc2Cl)c2ccccc2n1 | inconclusive: 17.8 µM [inhibitor, partial curve] |  |
| O=C(N/C=C/n1cnc2cc(C(F)(F)F)ccc21)c1ccccc1 | inconclusive: 5.32 µM [inhibitor, single point] |  |
| O=C(c1cc(S(=O)(=O)N2CCOCC2)ccc1F)N1CCc2ccccc21 | inconclusive: 31.6 µM [inhibitor, partial curve, poor fit] |  |
